Measurements as given in the RNAGym collection of RNA variant scans (doi:10.1073/pnas.2313332121).
Variants at the floor of the assay are shown more often than the library holds them.

B1: TPR 5TU (parent)
chain: GGAUCUUCUCGAUCUAACAAAAAAGACAAAUCUGCCACAAAGCUUGAGAGCAUCUUCGGAUGCAGAGGCGGCAGCCUUCGGUGGCGCGAUAGCGCCAACGUUCUCAACUAUGACACGCAAAACGCGUGCUCCGUUGAAUGGAGUUUAUCAUG

Variants of: B1
Assay: polymerase ribozyme fitness, log enrichment relative to wild type (log ratio); higher = more active; in vitro selection for triplet polymerase activity
Summary of the method: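 Mutant libraries of each subunit of a heterodimeric triplet polymerase ribozyme were built by PCR and transcribed. Each library went through one round of in vitro selection in triplicate: annealing with biotinylated primer, partner subunit and triplets, frozen incubation at −7 °C, gel excision of extended constructs, streptavidin-bead capture and RT-PCR. Input and output libraries were Illumina-sequenced; only genotypes with ≥10 input reads and ≥1 read per output were kept. Fitness is log2(genotype enrichment/wild-type enrichment), using inverse-variance-weighted replicate averages.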

| Variant | polymerase ribozyme fitness (log ratio) |
| --- | --- |
| C93G C114G A122U A150G | ≤ -4.2 |
| G94U C114G C116U | ≤ -4.2 |
| G94C A142C | -1.37 |
| C95A A98G | 0.372 |
| C95A C96A C116U | -0.649 |
| A91U C93G G112A G128U G136A U148A | ≤ -4.2 |
| A91G C95G | -3.67 |
| G92A U135A U145C | -3.89 |
| A91U C103G A110C G133C U145G | ≤ -4.2 |
| G92C U111C | -3.45 |
| A91U G140U | ≤ -4.2 |
| G94A G141C | -2.23 |
| G94A G141A | 0.172 |
| G92U U101G | 0.0893 |
| A91C A113G A138U | ≤ -4.2 |
| G92A U101C C114A A137G | ≤ -4.2 |
| C93A A121C U148C | -2.37 |
| G92U C93U C95A C99A U101G | ≤ -4.2 |
| G92A C108U | ≤ -4.2 |
| A91G G94A | -3.47 |
| G92U A115C A119U G140C | ≤ -4.2 |

| Variant | polymerase ribozyme fitness (log ratio) |
| --- | --- |
| A91U G92U C132A | ≤ -4.2 |
| C93A A106C A110C G112C C131U G133U U134A U145G | ≤ -4.2 |
| G92U C95U A137U | -4.11 |
| G94A C105U C116U C125G | -0.0334 |
| C93G G140C | ≤ -4.2 |
| G92C C105U | -0.217 |
| A91U G133A U148C | ≤ -4.2 |
| C93G G152U | ≤ -4.2 |
| G92A A107G | ≤ -4.2 |
| C95G C96U U151G | ≤ -4.2 |
| G94A C96G | -2.1 |
| C93G U145G | -2.53 |
| C93A A138G G143C | -3.66 |
| C93U G117A A142C | -4.07 |
| G92A A115C | -3.48 |
| A91G C93A U101C U148G | ≤ -4.2 |
| G92A U101G A113G A122U U146A | ≤ -4.2 |
| G94A C96U C99G U144G | ≤ -4.2 |
| U90G C93A | ≤ -4.2 |
| G92A C116G C123G | -2.92 |
| G94U A142U | -1.73 |

| Variant | polymerase ribozyme fitness (log ratio) |
| --- | --- |
| G92U G141A | -1.81 |
| C93U U102G G117U U135A | ≤ -4.2 |
| A91G C123G A150C | ≤ -4.2 |
| C93A C108A | ≤ -4.2 |
| G94A G100A G143U | ≤ -4.2 |
| G92A G141A | -2.48 |
| G92A G141C | -3.71 |
| C93A C96G A97C U148A | ≤ -4.2 |
| G92U C93U A138C | ≤ -4.2 |
| A91U C118A U139C | ≤ -4.2 |
| G92C G124U G152U | -3.69 |
| A91C G92A G94A G141C | ≤ -4.2 |
| G92A U101C G143U | ≤ -4.2 |
| A91C U135G | ≤ -4.2 |
| C93U U102G U109C G140U U148G | ≤ -4.2 |
| C93U U139C | ≤ -4.2 |
| C93U C131A | -2.97 |
| A91G G92A C125G C129G A137G | ≤ -4.2 |
| A91U G94A G128U | ≤ -4.2 |
| C95U C96G U135G U144G A147C | -4.2 |
| G92U C116U | 0.0946 |

| Variant | polymerase ribozyme fitness (log ratio) |
| --- | --- |
| C93G U111G | ≤ -4.2 |
| C93U C105U | -2.55 |
| A91U C95U U109G A121G G136C G143A | ≤ -4.2 |
| A91C C95U C103G C116G | ≤ -4.2 |
| C93U G140U | -3.59 |
| C93A C95U U109G A119G C131A | ≤ -4.2 |
| G94C A107U | ≤ -4.2 |
| G94C A107G | -3.89 |
| A91U A121C | ≤ -4.2 |
| G92C G140C | ≤ -4.2 |
| C93G C108A A115G | ≤ -4.2 |
| A91C U139G | ≤ -4.2 |
| G94U U101G A120U A142U | -2.08 |
| G92C C103A | -3.4 |
| G92U A106G | -0.318 |
| G92A U104A A106C C108A | ≤ -4.2 |
| A91G C114G G124A | ≤ -4.2 |
| C95U G100U U104G C114U G141C A150C | ≤ -4.2 |
| C95U A147U | 0.673 |
| G92U C116G U127G | ≤ -4.2 |
| G94C A122C A137U | -4.05 |
